# Test results as given in the supplement of paper PMC3334620.
# Over roughly 33,000 sequences, “E-score (-0.5 to 0.5)” has its median near -0.021; the highest 2% begin near 0.32. This is one part of the list.
# Biological target: T1, Zap1 (UniProt P47043)
# T1 sequence: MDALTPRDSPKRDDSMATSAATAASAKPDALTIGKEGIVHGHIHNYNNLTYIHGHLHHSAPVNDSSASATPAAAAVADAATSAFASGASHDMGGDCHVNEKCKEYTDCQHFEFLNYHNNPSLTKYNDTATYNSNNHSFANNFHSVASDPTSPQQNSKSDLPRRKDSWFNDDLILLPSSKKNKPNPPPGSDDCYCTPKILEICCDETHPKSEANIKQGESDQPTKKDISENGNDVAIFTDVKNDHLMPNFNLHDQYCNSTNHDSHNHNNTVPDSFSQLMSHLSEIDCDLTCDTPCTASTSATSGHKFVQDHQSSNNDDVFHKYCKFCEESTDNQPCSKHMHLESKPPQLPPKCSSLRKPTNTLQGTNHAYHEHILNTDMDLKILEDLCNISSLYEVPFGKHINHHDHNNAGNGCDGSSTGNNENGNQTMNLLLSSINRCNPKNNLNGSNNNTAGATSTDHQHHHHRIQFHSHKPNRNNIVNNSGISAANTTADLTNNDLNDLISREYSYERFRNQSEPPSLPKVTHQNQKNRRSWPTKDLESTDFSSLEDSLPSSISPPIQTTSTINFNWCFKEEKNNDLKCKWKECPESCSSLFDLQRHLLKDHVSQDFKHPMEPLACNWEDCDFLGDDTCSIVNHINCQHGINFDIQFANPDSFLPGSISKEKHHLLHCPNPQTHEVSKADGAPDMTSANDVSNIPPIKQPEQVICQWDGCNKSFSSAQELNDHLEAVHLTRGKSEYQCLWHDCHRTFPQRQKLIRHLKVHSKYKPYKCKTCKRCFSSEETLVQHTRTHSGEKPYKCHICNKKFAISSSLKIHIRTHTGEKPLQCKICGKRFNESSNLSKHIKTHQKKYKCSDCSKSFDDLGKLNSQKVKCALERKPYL
# Assay: PBM E-score (8-mer binding enrichment) (E-score (-0.5 to 0.5)); higher = stronger / more preferred TF binding; most listed sequences are background and not binding sites
# Details: protein concentration: 200 nM; construct: GST-full length
# Outline: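 Masliner-normalised scans of fluorescent anti-GST signal were the basis for scoring. That signal came from GST-tagged yeast transcription factors applied at about 100-200 nM to double-stranded universal all-10-mer Agilent arrays on fresh or once-stripped slides. Each ungapped eight-base word, pooled with its reverse complement, received an E-score from the Universal PBM Analysis Suite.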
row,Sequence,PBM E-score
1,ATGAGACC,0.0567
2,ACGCCATC,-0.168
3,CAAGGGCA,-0.182
4,ATTCATGA,0.0897
5,CCACCGAA,0.192
6,ATGGCCAA,0.0886
7,GTGTAATA,0.0548
8,GCGGGCCA,-0.187
9,TACATTAA,0.302
10,AGATTTAG,0.173
11,CTCTTGTC,-0.0842
12,TACTGGGA,0.0284
13,TGTGTTAA,0.0894
14,ACCCGAGG,0.297
15,AGTGCGAC,-0.109
16,CGAAAGAA,0.137
17,AGCGAGGG,-0.0631
18,CCATTATA,0.179
19,ATGGTTTA,0.191
20,CTCGTTGC,0.211
21,GTACAACA,0.185
22,GTACACAA,0.12
23,CTATGACA,-0.117
24,GCAGGAAC,-0.181
25,CATGCCGG,-0.116

row,Sequence,PBM E-score
1,CGCGTTCA,0.153
2,ATACATGC,-0.216
3,CGTCTTGA,0.0342
4,AACAGAAA,0.202
5,ACGATGGC,-0.0959
6,CGAGCCTC,-0.322
7,CCGCAGGA,-0.076
8,ACGCCTCT,-0.0358
9,CGCCGATA,-0.0619
10,ATCGCGCG,0.125
11,ACCGAAGC,-0.11
12,ACGAAGGC,-0.382
13,AGGCGACC,0.0543
14,GATCATCA,-0.01
15,ACAGAAGT,-0.0353
16,ATCGATCA,-0.0301
17,TCACCTGA,-0.0817
18,GCCAGCCC,-0.204
19,CCATGGAC,0.0921
20,CCGTAAAC,0.197
21,ATGTGGGA,-0.139
22,AATTTGCG,-0.025
23,GCTGTACA,-0.181
24,GAACATTC,-0.174
25,CTTGACAA,0.0636

row,Sequence,PBM E-score
1,GAGGCGAA,-0.123
2,CGAGGGTC,0.245
3,GGCCTGAC,-0.0811
4,ACATTAGG,0.0931
5,CACTGGAA,-0.011
6,GAGCGAGA,0.0493
7,ATTCTTTC,-0.0304
8,AAGCTCGT,-0.163
9,GACAAGCA,-0.193
10,ACTGGAAA,0.14
11,AAGCACCA,-0.142
12,AATGCCCG,-0.153
13,CCTCTGCC,-0.33
14,ACCAATAG,0.0471
15,CGAATGTC,0.0201
16,AGTGCTTG,-0.00778
17,CTCTCCTA,-0.129
18,AACATACG,0.125
19,ATTTGCCG,-0.168
20,CGAGTTTC,-0.0942
21,ACGGCGTG,-0.163
22,AGTGGTTG,0.312
23,GAAGGACC,0.1
24,GAATAGCC,-0.103
25,AACAGCGA,-0.0959

row,Sequence,PBM E-score
1,ATGAACAA,0.0884
2,AATAGGCA,-0.128
3,GAGGCTAC,0.0381
4,GGACGCGA,-0.163
5,AGCTGTAT,-0.19
6,ACCTTACC,0.251
7,CCGCTAGC,-0.222
8,TAGCAACA,-0.0723
9,ACTGTAGG,0.212
10,ACGAAGGA,-0.166
11,AAAGGTCG,0.323
12,TCATTAAA,0.3
13,CTTACGTC,-0.182
14,CTTAGTAA,0.0433
15,GTTATGGA,0.294
16,TCTTAAAA,0.0989
17,TCCATGCA,-0.0815
18,ACTCTACA,-0.0581
19,AGCACGCT,-0.147
20,CACTCCGA,-0.163
21,TAAGGCGA,-0.0498
22,ACCTTACT,0.2
23,GATGGATA,-0.131
24,AATGCGAA,-0.0534
25,GTACGTAA,0.0366

row,Sequence,PBM E-score
1,AACAGAGT,0.0155
2,ATAACTCG,0.131
3,GTTATAAC,0.401
4,CCCAAGAA,0.0734
5,GCCATAAA,0.099
6,AATCCAAT,-0.00622
7,GGTAAACC,-0.00185
8,GTCACGCA,-0.0264
9,ACTCACTC,-0.113
10,CAGCAAGC,-0.389
11,CACCACTC,0.139
12,ACCACCGG,0.143
13,AGCGGCAA,-0.225
14,GAGCCCCA,-0.0458
15,AATTGAAC,-0.0125
16,ACCCCTGG,0.289
17,CCATACAG,0.0668
18,ACTATAGA,0.0389
19,AATCCCTC,-0.162
20,AGCGCGCA,-0.032
21,CGAGCTTC,-0.124
22,ATGTCTCG,-0.211
23,AGAACCTA,0.0497
24,CCATACTC,-0.00872
25,CATTTGCA,0.104

row,Sequence,PBM E-score
1,AAGTTGAA,0.00377
2,AGTTCAAG,0.0918
3,GCCTATGA,-0.00418
4,ACCATCTA,-0.0543
5,GCTGACTA,-0.246
6,GACGCAAA,-0.0858
7,TAGCTTAA,0.0855
8,ACTATGCA,0.00554
9,TAATATAA,0.283
10,GAAGCGCC,-0.135
11,CTGATCGC,-0.199
12,ATGCGGTC,0.179
13,AATGAGTG,0.0236
14,AAGAATCC,-0.0422
15,ATCACTAA,0.0673
16,CCCGCCCC,0.176
17,CCATGCGA,-0.00441
18,AAGGATGC,-0.24
19,CCTGCTAG,-0.173
20,ACATCTCG,-0.113
21,AGGCATTC,-0.255
22,GAGTACCA,0.247
23,AAACACCT,0.196
24,TATCGTGA,0.0588
25,AGTTCCAT,0.103

row,Sequence,PBM E-score
1,AGGTGTAC,-0.0668
2,AAGATGTG,0.136
3,GGACTACC,0.172
4,ACGCCCAC,0.0802
5,GGTTGTGA,0.374
6,GGCGTCTA,-0.147
7,TTAGACAA,-0.0263
8,GCGCTGAA,-0.241
9,ATGACCTG,0.303
10,AAGAAAAA,0.19
11,CGTTGCGA,-0.126
12,ACGCACCG,-0.0299
13,ATTACTGA,0.0342
14,TCCAAAGA,0.13
15,CTACTGAG,-0.0539
16,CCTCAATA,0.0804
17,CCTAAGCC,-0.264
18,CCCGAACC,0.0468
19,CAAACCAG,0.0515
20,GGTCCTGA,0.102
21,CCGGTGCG,0.0015
22,CAGTGGTC,0.0921
